Patent US20070072177A1 (CRUCELL HOLLAND B V, published 2007)

Biological target: T1, glycoprotein of rabies virus strain CVS-11 (rabies virus strain CVS-11, UniProt O92284 20-524)
T1 sequence: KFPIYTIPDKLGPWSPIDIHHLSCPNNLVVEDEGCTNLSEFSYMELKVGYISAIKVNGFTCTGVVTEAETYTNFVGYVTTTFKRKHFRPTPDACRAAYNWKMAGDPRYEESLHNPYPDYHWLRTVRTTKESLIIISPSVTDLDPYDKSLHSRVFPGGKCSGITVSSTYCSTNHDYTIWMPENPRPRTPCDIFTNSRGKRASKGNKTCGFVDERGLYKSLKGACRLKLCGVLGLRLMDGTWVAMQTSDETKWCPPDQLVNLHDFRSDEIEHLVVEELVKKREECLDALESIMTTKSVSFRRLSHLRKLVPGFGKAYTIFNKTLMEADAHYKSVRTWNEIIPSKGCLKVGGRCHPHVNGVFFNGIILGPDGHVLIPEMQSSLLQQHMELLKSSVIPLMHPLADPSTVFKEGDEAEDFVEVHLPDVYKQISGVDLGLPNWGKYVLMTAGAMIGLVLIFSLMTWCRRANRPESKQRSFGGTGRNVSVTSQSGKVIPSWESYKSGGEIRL
Assay: cell-based or functional assay

B1: SC04-004 (scFv)
scFv: SMAEVQLVESGGGLVQPGGSLRLSCAASGFTFSNYWMNWVRQAPGKGLEWVSAISGSGGSTYYADSVKGRFTISRDNSKNTLYLQMNSLRAEDTAVYYCAKDYLYPTTDFDYWGQGTLVTVLEGTGGSGGTGSGTGTSELTQSPSSLSASVGDRVTIT[about 80 residues not given here]FGQGTKVEIKRAAA
- Potency (IU/ml): 18 IU/ml
